Test results reported in the supplement of paper PMC11417369.
± gives the standard deviation of the averaged measurements. Some of the results follow.

Test system: PfAP2-I AP2 domain 3 (GST-tagged)
Assay: gcPBM binding intensity (ln(normalized median fluorescence intensity)); higher = stronger DNA binding
Method in brief: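 An Agilent 4 × 180k array carrying primer-extended double-stranded 36-bp intergenic genomic probes and negative controls received GST-tagged P. falciparum DNA-binding domains expressed in E. coli, about 25 μg on average, for 1 h. The binding buffer contained 1× PBS, 1% milk, 0.2 mg/ml BSA, 0.5% salmon testes DNA and 0.03% Triton X-100. Binding intensity is the top Masliner-normalised natural-log median intensity across replicate spots of either probe orientation, read after Alexa488 anti-GST antibody staining and a 488 nm scan.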

| Sequence | gcPBM binding intensity (ln) |
| --- | --- |
| ATATATATAATTTGTACACACAAATATGCATATATA [CACACA_site3432] | 8.05 ± 0.42 |
| AGATATTTTTCTTAAGTACACACTAAATAGAAACTA [CACACA_site44] | 7.88 ± 0.38 |
| TTTTTTTTTTTCAGTTGTACATTGGGAAAATATATA [XGTACX_site4416] | 8.04 ± 0.74 |
| AGTCTGAATAAAATTACACACATATACCTATAAATA [CACACA_site6929] | 7.68 ± 0.56 |
| ATAATATGTAATATTACACACAATTCATCATTTTTT [CACACA_site3159] | 7.58 ± 0.63 |
| ATATACACCGTTGAATGTACATAAATAATATTAATA [XGTACX_site2893] | 7.92 ± 0.34 |
| AGTACATTTTTTTTAATAGGAAAAAAAATATTTATT [TGCATGCA_negctrl_site575] | 7.66 ± 0.57 |
| AAGTATTATTTTTATGCATGTGAAGTGCAAAATAAA [TGCATGCA_site198] | 11 ± 0.43 |
| ATATAATATATATGGTGTACATTTTTTAGTGCTATT [XGTACX_site1662] | 8.23 ± 0.26 |
| AAAAAGTGACTCCTTACACACTTTACATAATTTAGT [CACACA_site4606] | 7.63 ± 0.57 |
| TAAAAGAATAAAAGTAGTACTTTTTTTTATATTAGA [XGTACX_site368] | 7.45 ± 0.3 |
| TCTTTTTTTTTTTATTGTACAAGAAAAGGAAAAAAT [XGTACX_site3717] | 7.87 ± 0.36 |
| ATATTTTTATATTAGTGTACTTATTATAATGTATAG [XGTACX_site8185] | 7.88 ± 0.33 |
| AAGTATGCATTATATACACACATACATTTATATATT [CACACA_site4242] | 8.17 ± 0.49 |
| TTGGTTATACAACACATGCACACGTAAATAAATATT [CACACA_site3841] | 8.27 ± 0.65 |
| TATATATAAAGAGAAACATGCAAAATGTGAATATTC [TGCATGCA_site377] | 8.04 ± 0.85 |
| ATTATGTTAAAAAGGCGTACATGTTATAAGGTCCTA [XGTACX_site344] | 8.11 ± 0.6 |
| TCCTTATAAATATATATATAATATATATATATATAT [CACACA_negctrl_site293] | 8.86 ± 0.2 |
| TATATATATATTTATACACACATTAGTGTAGACATG [CACACA_site8964] | 8.915 ± 0.021 |
| TTGTTCTAATATATTGCACACGTAAAAATATAGGTA [CACACA_site8195] | 9.99 ± 0.41 |
| TTATATATTTTTACCATACACACATATAATAAATAT [CACACA_site3721] | 8.04 ± 0.63 |
| ATAAAGATTTTCCAAGCATGCCACATAGTGAGATAC [TGCATGCA_site594] | 8.09 ± 0.71 |

| Sequence | gcPBM binding intensity (ln) |
| --- | --- |
| ATCATAAAAGTATACACACATACATACATATGTACA [CACACA_site2641] | 7.88 ± 0.48 |
| TATATATATATTATATGTACATATTCCTATATATAC [XGTACX_site7071] | 9.06 ± 0.28 |
| TAAATATATATATATGTACACACTCCAATACATATA [CACACA_site8858] | 7.88 ± 0.39 |
| ACTTTATATTTTGAACGTACAAAAAAAAAATTATGT [XGTACX_site5588] | 8.11 ± 0.28 |
| AACCATTAATTCTCTACACACTTTTATTTTATTTAG [CACACA_site1769] | 8.11 ± 0.44 |
| GCACATATATACATACATACATACATACATATGTAT [TGCATGCA_negctrl_site95] | 8.07 ± 0.83 |
| ATATTTATAACTTGTACACACAAATATGCATATATA [CACACA_site7583] | 8.27 ± 0.52 |
| TTATTATTCCCTCATTTTGTTACCATTATTTCAATT [CACACA_negctrl_site1023] | 8.05 ± 0.68 |
| TTAAAATTTTTTTTTTTTTTTTTTTTTTTTTTTTTC [CACACA_negctrl_site957] | 7.64 ± 0.2 |
| TTGTTAAAATTATTAAGTTAAATATCGATTTGTAAA [XGTACX_negctrl_site429] | 7.3 ± 0.47 |
| TATAAGTTTATATATACACACATATATATATATATA [CACACA_site3274] | 9.49 ± 0.68 |
| AAAAAAAAAAAAAACACACACACAAATACAAATACA [CACACA_site414] | 8.4 ± 0.44 |
| ATAAATAATTGTAGTTGTACATGATATTTTTATTAC [XGTACX_site550] | 7.65 ± 0.42 |
| TACAAAAAAAGATGATGTACAATGAAAAATAAGAAA [XGTACX_site5840] | 8.1 ± 0.73 |
| AAATGGACCTAATTATCACACATTATACTCGTTTTC [CACACA_site5996] | 7.62 ± 0.57 |
| ATATATCATAATAAAAGTACTTATATATTTTATATA [XGTACX_site560] | 7.59 ± 0.33 |
| AAAATAAATAAATATACACACCATATATATATTTTT [CACACA_site5573] | 7.61 ± 0.39 |
| TTATATAATCCTTTCAAACACACAAAATATAATTAA [CACACA_site1830] | 7.75 ± 0.45 |
| AGTGAAAAAAAATTTACACACATAAAATATAAACGA [CACACA_site3724] | 7.99 ± 0.79 |
| TTTTTAGTTCATTAAACACACAAAAAAAAAAATAAA [CACACA_site6035] | 7.68 ± 0.27 |
| TTTTTTATTCTTTTTGCACACAGGAAATTTACAGAT [CACACA_site1090] | 9.94 ± 0.13 |
| TAATACTTTTAATCTACACACGCTGAGACATGCTTT [CACACA_site1484] | 7.54 ± 0.56 |

| Sequence | gcPBM binding intensity (ln) |
| --- | --- |
| AAAAAAAATATAAGTGGTACTCACATAAAGACATAT [XGTACX_site3709] | 7.99 ± 0.48 |
| AAATAAAATACATATAAACACACATATAAACCAACA [CACACA_site8789] | 8.1 ± 0.36 |
| AAAATAAAAAGAAAAAATAAAAAGAAAAAATAAAAA [CACACA_negctrl_site120] | 7.33 ± 0.78 |
| AATAAAATAATAGGCACACATATATATATATATTAT [CACACA_site273] | 8.05 ± 0.42 |
| ATATCCTACTTCTAGTGTACATATATGGACTGATGA [XGTACX_site3683] | 8.16 ± 0.62 |
| ATATATCTACATATATGTACATATATGTATATGTAT [XGTACX_site5432] | 7.86 ± 0.48 |
| TACAATTTATGACACACACACAATAATACCTATATA [CACACA_site6704] | 7.94 ± 0.42 |
| TATATATATATATGTGCACACATAAAGATATTATTT [CACACA_site3734] | 10.18 ± 0.021 |
| AAAAAAAAAAAACACACACACACACTAGTACATACA [CACACA_site4551] | 8.13 ± 0.085 |
| TTTTTAATACAAAAAAAATAATATGTTATATTTCAA [CACACA_negctrl_site35] | 7.34 ± 0.33 |
| ATGAAATATGCACAGTGTACTTTTATGAGGAACATA [XGTACX_site426] | 9.045 ± 0.064 |
| GGGAATATATAAGATACACACACAAATTAAATATAA [CACACA_site8898] | 7.75 ± 0.52 |
| TGCCCTTTGGTTATAACACACATGCACACGTAAATA [CACACA_site7750] | 8.87 ± 0.34 |
| AATTAACCGTGACACACACACATATAAATATAAATA [CACACA_site7790] | 8.45 ± 0.69 |
| TATATATATATATATACACACACACCCACCAAAGCG [CACACA_site7904] | 9.41 ± 0.32 |
| AAAATGTACTTTTTCTAAAGAGTAATGATGCTTGAT [CACACA_negctrl_site1124] | 7.61 ± 0.54 |
| TTTAACGTTGAATATACACACATATATTTATTTATA [CACACA_site7695] | 7.47 ± 0.54 |
| AATCCTTTAAAACACACACACAAAAAAAAAAAAAAA [CACACA_site642] | 8.11 ± 0.48 |
| TGCTTCATAAATAAAACATGCAATATAGAAATTAAA [TGCATGCA_site690] | 7.79 ± 0.83 |
| TATAGTAAAATTAGGGTGCTTTTGTAACAAAAAAAA | 9.485 ± 0.092 |
| TTATTTTCTTTCTATGCACACGCACGTATTTGCCCA [CACACA_site9104] | 9.39 ± 0.16 |
| AGAGTAGGAAATGGAAAAATAAAATAAATAAATAAA [XGTACX_negctrl_site69] | 7.86 ± 0.8 |

| Sequence | gcPBM binding intensity (ln) |
| --- | --- |
| AAATATATATACCACACACACATACCTCTATTTGTA [CACACA_site1854] | 8.02 ± 0.51 |
| AATAAAAAAATAAAAAAAAAAAAAAATAAAAAAAAA [GTGCAC_negctrl_site12] | 7.58 ± 0.77 |
| CGTATTTTAATATTTACACACTTATTTTTTATATAA [CACACA_site125] | 7.94 ± 0.44 |
| TTTTGTAAAAGGTATATATATATATATATATATATA [GTGCAC_negctrl_site734] | 9.45 ± 0.69 |
| TTTATATAGAAAAATTGTACGAATTACTTTTTTATA [XGTACX_site6843] | 7.38 ± 0.28 |
| TATAGCATATTTCACACACACATAATGAATATTATA [CACACA_site3545] | 7.7 ± 0.45 |
| AATGGGTAAACATACACACACACATCTATATTTATA [CACACA_site7025] | 7.67 ± 0.61 |
| TAACAAGGTTTATATGCATGCAAACATAACCAAAAA [TGCATGCA_site824] | 7.92 ± 0.76 |
| TACTATATCATTTATTGTACAATATTTCTTCAGAAA [XGTACX_site1008] | 7.76 ± 0.51 |
| CTTTGCCTTAAAAAGGAACACACATGCTTTTTTTAG [CACACA_site8219] | 7.8 ± 0.72 |
| TATAAAAGACTAAATATTATAGAAATATAAATATAA [TGCATGCA_negctrl_site237] | 7.29 ± 0.32 |
| AAACAGATAAATAAAAGTACACATTAAAAGGTAGCA [XGTACX_site4150] | 7.88 ± 0.47 |
| ATATATATGTATAATCGTACAGTTAACGTATTCTTA [XGTACX_site5649] | 7.74 ± 0.4 |
| TAATTAATTTCTTTACGTACATAATTAATATATATA [XGTACX_site7372] | 8.02 ± 0.35 |
| GGATTTTAATGAACACGTACATAAAATTAAATAAAT [XGTACX_site7023] | 7.87 ± 0.54 |
| GGTTCATAATATGGTTGTACATAAATATATATATAT [XGTACX_site7583] | 9.36 ± 0.28 |
| GGGAGGATAGTTCACAGTACCCAGGAAATCTACGGA [XGTACX_site2553] | 7.88 ± 0.26 |
| ATTACAATAAATTCGTGTACATGATACCGCCGCTAC [XGTACX_site8997] | 7.88 ± 0.61 |
| ATCAAATTTTTGTTATGTACACAATCATTTAATAAA [XGTACX_site810] | 7.79 ± 0.57 |
| CACAAATAAATATTCACACATATATGTCTTATATAT [CACACA_site5323] | 7.52 ± 0.38 |
| AAAAAAAAAAAATAGGTGCGTGTTACTTTTGTATGC [GTGCAC_site9524] | 8.35 ± 0.46 |
| TAATTATTATTAAATACACACACATACCTCCATGTT [CACACA_site9134] | 7.71 ± 0.5 |
